Source: the supplement of paper PMC3334620
Whole data set: some 33,000 sequences, median “E-score (-0.5 to 0.5)” near -0.035, cut for the highest 2% near 0.34. Some of the results follow.

biological target: T1, Mot3 (UniProt P54785); experiment: PBM E-score (8-mer binding enrichment) (E-score (-0.5 to 0.5)); higher = stronger / more preferred TF binding; most listed sequences are background and not binding sites; conditions: protein concentration: 200 nM; construct: GST-full length
T1 sequence: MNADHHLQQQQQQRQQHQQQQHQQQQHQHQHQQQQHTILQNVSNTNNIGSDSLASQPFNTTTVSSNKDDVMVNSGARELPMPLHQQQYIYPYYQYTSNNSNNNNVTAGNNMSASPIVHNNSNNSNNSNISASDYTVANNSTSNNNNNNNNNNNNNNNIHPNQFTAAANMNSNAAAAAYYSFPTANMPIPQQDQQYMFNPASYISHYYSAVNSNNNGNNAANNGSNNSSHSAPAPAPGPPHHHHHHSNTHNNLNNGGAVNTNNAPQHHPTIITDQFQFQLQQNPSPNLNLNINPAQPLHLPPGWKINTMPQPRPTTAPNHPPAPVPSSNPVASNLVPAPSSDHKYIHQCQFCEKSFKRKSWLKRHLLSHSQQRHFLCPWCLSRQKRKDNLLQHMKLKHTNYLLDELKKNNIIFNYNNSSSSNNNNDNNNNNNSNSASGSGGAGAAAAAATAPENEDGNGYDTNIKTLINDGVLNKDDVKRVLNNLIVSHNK
Outline: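 Each ungapped eight-base word and its reverse complement, pooled, received an E-score from the Universal PBM Analysis Suite. Underlying scans, normalised with masliner, recorded fluorescent anti-GST bound to GST-tagged yeast transcription factors. These were applied at about 100-200 nM to universal all-10-mer Agilent arrays double-stranded by primer extension.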

Row | Sequence | PBM E-score
1 | AAGGTTAA | 0.0994
2 | CGACGACC | -0.311
3 | CGCCTTCC | -0.00115
4 | ACGTAGCA | 0.0713
5 | ACAGCCGA | -0.138
6 | AACGGAAT | -0.0211
7 | AGCCTTTG | 0.0698
8 | CGAGCACA | 0.0344
9 | CGCGCTAA | 0.0891
10 | GAATGTAA | 0.295
11 | CCCAAAGC | -0.272
12 | AGTAACCC | -0.0877
13 | AAGCCATT | -0.0129
14 | AACTATTG | -0.0347
15 | TTACGAAA | 0.119
16 | ACGACTCG | -0.0679
17 | TCACGACA | 0.163
18 | AGTAGGCA | 0.481
19 | AGTGACAA | -0.0444
20 | CCTCTCCG | -0.182
21 | CGGTAATA | -0.00636
22 | GAATATAA | -0.0894
23 | AGGAGGCC | -0.263
24 | CTCGGGTC | -0.264
25 | GATACTAC | -0.044

Row | Sequence | PBM E-score
26 | ATAGCTTC | -0.284
27 | AATGCCCT | -0.189
28 | CCATGTAG | 0.346
29 | ATCTGACA | -0.0806
30 | AGCTCTCG | -0.181
31 | TGATCGCA | -0.0867
32 | ACGGTCGG | -0.0663
33 | CTAGAAAC | -0.0677
34 | GGTGCCGA | 0.0164
35 | AAGAAAGA | -0.0446
36 | AGGAGTGC | -0.146
37 | GAAACCTC | -0.145
38 | AGATGAGG | -0.208
39 | CCCTCAAC | -0.239
40 | CGATATCG | 0.0549
41 | ACAGAAAC | 0.198
42 | CAGGTAAC | 0.39
43 | CGTATCTA | -0.052
44 | CTGCATCA | 0.155
45 | GCCTCCGA | 0.0149
46 | ATCAGCGC | -0.0594
47 | AGACACTG | -0.188
48 | CCGCTCAA | -0.0748
49 | ATATACAC | 0.358
50 | AACAACGG | 0.105

Row | Sequence | PBM E-score
51 | CCTACTTC | -0.0137
52 | AAAGGGGT | 0.124
53 | AGTCAATG | -0.0698
54 | GATCGGGA | -0.259
55 | CTAAATAG | -0.0131
56 | CGTAGTAC | 0.0807
57 | CCTGTGTC | 0.194
58 | AGGGGAAG | -0.188
59 | CGTAGTCA | 0.0231
60 | TACAGAAA | 0.046
61 | CGACCTCC | -0.141
62 | ACTTGAAT | 0.102
63 | ACCAGCCG | -0.216
64 | ATAGTTGC | 0.0674
65 | CAGGTGGC | -0.216
66 | AATCATTA | 0.0151
67 | CCTCAGTA | -0.209
68 | GAGGATAC | -0.118
69 | CCAGTTCA | -0.101
70 | CCGGTCAA | -0.0358
71 | CGGCACCC | -0.126
72 | CATCGCGA | -0.0776
73 | CAAGACTC | -0.279
74 | ATCTCAAG | -0.00251
75 | AGGCTTGA | -0.0982

Row | Sequence | PBM E-score
76 | CGACGTGA | 0.098
77 | AGCTCAAA | 0.132
78 | GGAGGAAC | 0.272
79 | CGGTCAAA | 0.0302
80 | ATAAGGCG | 0.0672
81 | GGCTGAGA | -0.183
82 | CGTCCTCA | -0.121
83 | AAAAACAA | 0.244
84 | CCATGGTC | -0.066
85 | ACCCCCTC | -0.168
86 | GACAACTC | -0.0464
87 | ATGGCGAA | -0.149
88 | ATGCAGAG | -0.0249
89 | GATCCCGA | -0.316
90 | ATATGGAG | -0.00103
91 | CCCCCGGC | -0.249
92 | CACGGCTG | -0.136
93 | GTAAGGCA | 0.464
94 | AGGTCCCG | -0.243
95 | GTCCATCA | -0.187
96 | ACCGTACC | 0.0886
97 | GGGATCGA | -0.136
98 | CGCACCAA | -0.0888
99 | ACGAATTC | -0.071
100 | GTACCGAA | 0.0806

Row | Sequence | PBM E-score
101 | AGCTGGGG | -0.248
102 | CAGCCCCC | -0.268
103 | CTGGGAGA | -0.0824
104 | AGCAAGCA | -0.127
105 | AACTGTGT | 0.297
106 | GCTTGACA | 0.141
107 | ACGGCCAT | -0.187
108 | GCCCCCGC | -0.325
109 | GACGCTGA | 0.0483
110 | TCCATGAA | -0.0433
111 | CGAGCAAC | 0.0725
112 | GGTTACCA | -0.0508
113 | CGGCCAAA | 0.047
114 | TCACGTAA | 0.306
115 | GTCGATTA | 0.0146
116 | CTGTTAAG | 0.259
117 | CACCGCTA | -0.133
118 | ATTGTTAA | 0.235
119 | AAAGGTCT | -0.0534
120 | AGAGTGTA | 0.0658
121 | CCTGTTAA | 0.297
122 | ATAGAACA | 0.123
123 | ATGTACTA | 0.315
124 | CCGTGTTA | 0.376
125 | ACCTTTAG | 0.0895

Row | Sequence | PBM E-score
126 | ACTAAGGC | 0.0062
127 | CGTCACTA | -0.0785
128 | CCAATCAG | -0.22
129 | AGCGGCAG | -0.223
130 | ATTGGCAA | 0.0509
131 | CGTCGGGA | -0.272
132 | CTGGTCGC | -0.0546
133 | GTAGCGGA | -0.149
134 | ATCACGCA | 0.09
135 | AAAGCGCT | -0.0135
136 | TAGAGGAA | -0.0809
137 | ACGCGGAT | 0.301
138 | ATTTCCCG | 0.114
139 | GGAATAAC | 0.153
140 | ATGTGGAA | 0.00649
141 | CCTCTTAG | -0.0201
142 | CTGGTTAA | 0.201
143 | AGACGCCG | -0.0857
144 | GAAGCCGA | -0.273
145 | TAGGGATA | -0.0974
146 | CAACTGAG | 0.00667
147 | GACAACCA | -0.13
148 | CGGTCAAC | 0.0299
149 | TAGCGCCA | -0.234
150 | ACTTCAGA | 0.0768

Row | Sequence | PBM E-score
151 | CCCTCCGC | -0.208
152 | AATACACA | 0.389
153 | GGCATCGA | 0.103
154 | CGGCCCAC | -0.112
155 | AGACGAGG | -0.226
156 | AGTAATTA | 0.246
157 | CCTCCTTA | -0.114
158 | GAGAAACC | -0.137
159 | ACCTATGG | -0.109
160 | CTATCCCA | -0.0179
161 | AACCGGTG | -0.14
162 | ACTGTTCG | -0.0349
163 | ATAACGCC | 0.181
164 | ATCGCGTA | 0.329
165 | TAAACGTA | 0.21
166 | AACTCTTC | -0.178
167 | ACGTGTGA | 0.184
168 | CTCGTACA | 0.0541
169 | TAGTTTGA | 0.0471
170 | CACTCGCG | -0.117
171 | TATTCACA | 0.221
172 | GCTGGGCC | -0.344
